Some of the results follow. The list includes weakly bound sequences.

The target of this assay is MaxL homodimer (UniProt P61244). The assay can be described thus: universal protein-binding microarray (PBM). Conditions: PBS-based mixture, 10 nM His-tagged protein dimer, 2% milk, 200 ng/uL BSA, 50 ng/uL salmon testes DNA, 0.02% TX-100; detection with Alexa 488 anti-His …; high values mean tight binding; most listed sequences are background and not binding sites; double strand, one strand shown.
Sequence of UniProt P61244 (P61244 whole entry): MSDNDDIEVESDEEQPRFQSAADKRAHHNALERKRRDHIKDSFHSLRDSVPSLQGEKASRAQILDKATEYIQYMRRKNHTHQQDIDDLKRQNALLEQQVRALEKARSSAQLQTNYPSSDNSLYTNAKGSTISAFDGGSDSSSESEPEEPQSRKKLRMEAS
Consider ACCGTAGG, for which the binding signal (normalized occupancy) was 0.066. As to ACCTTCCC, the binding signal (normalized occupancy) is 0.0759.

Regarding ATGCCGAC, the binding signal (normalized occupancy) amounted to 0.078. For AGCAATAT the value was 0.0739.

Turning to AGCGGTGG, the binding signal (normalized occupancy) is 0.0699.

On to AATCTTGC, for which the binding signal (normalized occupancy) was 0.0679. For the sequence TCACAGCA, the binding signal (normalized occupancy) turned out to be 0.0833.

Consider CTTAGATA, for which the binding signal (normalized occupancy) amounted to 0.0789. AGGCCGCA: the binding signal (normalized occupancy) was determined as 0.0762. The result for CGATGTCC reads 0.0724. The result for CCCGCGAC reads 0.0695. The result for CGAGTCGC reads 0.0662.

On to CGCCTACC, for which the binding signal (normalized occupancy) amounted to 0.0768. The result for AGTTGATA reads 0.074; that for AATCCGTA, 0.0755; that for GTCTAGAA, 0.0731. For ACAGGCGC the value was 0.0764. The result for TAGGACGA reads 0.0723; that for CAATGTAC, 0.0801. As to CATCCATA, the binding signal (normalized occupancy) came to 0.0837. The result for AAGTCATA reads 0.0841. The result for GAATAAAC reads 0.0771. For CGGTCGCA the value was 0.07; for CATGGAAG, 0.0853. Turning to CATGAGGA, the binding signal (normalized occupancy) came to 0.106. The result for CAGCGATA reads 0.0716. In the case of ACGGTAAC, the binding signal (normalized occupancy) amounted to 0.0756. For CACAGTGG the value was 0.0743; for CCCATCTA, 0.0745; for AGCGGGTG, 0.0755.

Take ACAGCGAC: the binding signal (normalized occupancy) came out at 0.0721.

Regarding GGTGAACA, the binding signal (normalized occupancy) amounted to 0.0743. On to AATAAAAA, for which the binding signal (normalized occupancy) was determined as 0.0751. For ATTGATTG the value was 0.0769.

Take GTTATCAA: the binding signal (normalized occupancy) stood at 0.0808. The result for ACTCGACT reads 0.0722; that for CTGTAAAG, 0.0694; that for CTTTCCAA, 0.0733. For GAGGTCAC the value was 0.0768. In the case of AGACAACT, the binding signal (normalized occupancy) was 0.0749. With AACACGCG, the binding signal (normalized occupancy) worked out at 0.12. The result for GTGGAACA reads 0.0771; that for ACACAGGA, 0.0789. Regarding TGGTGCAA, the binding signal (normalized occupancy) stood at 0.0791. The result for AGTGTGTC reads 0.0772; that for ACATAAGT, 0.0755. The result for GAGTGTCA reads 0.0746; that for AGTGCAAG, 0.0719; that for ACGGCCCT, 0.0702. As for CCAGCTCA, the binding signal (normalized occupancy) is 0.0708. With TTAGAGAA, the binding signal (normalized occupancy) stood at 0.0743.

On to CTCTCTGC, for which the binding signal (normalized occupancy) was found to be 0.0705.

GATGCCCC: the binding signal (normalized occupancy) was 0.0764. The result for GCCCGCTA reads 0.0689.

For AACTTACC, the binding signal (normalized occupancy) worked out at 0.0716. The result for GTTGTAAA reads 0.0725; that for AGTCGCTA, 0.0684; that for CCCGCATA, 0.0795. For CGGACCGA, the binding signal (normalized occupancy) amounted to 0.0634. For CTGCCCCC the value was 0.0797. For AAGCAGGG the value was 0.0711; for GCCCTATA, 0.0758.

Turning to CTTTTTTC, the binding signal (normalized occupancy) is 0.0695. Take CGCGGTCC: the binding signal (normalized occupancy) came out at 0.0706. The result for GTAAATAA reads 0.073; that for ATCGGATC, 0.0727. The result for ATCAATTG reads 0.0745; that for CCGCGTGA, 0.142. Consider AGCACCAG, for which the binding signal (normalized occupancy) turned out to be 0.0742.

For AAATGAAG, the binding signal (normalized occupancy) was determined as 0.076.

Take ACTTTGCT: the binding signal (normalized occupancy) worked out at 0.0703. The result for AATTCCTG reads 0.0731. For CGGTGGGC, the binding signal (normalized occupancy) was 0.0662.

Consider CTCCGTGA, for which the binding signal (normalized occupancy) was 0.0702.

For the sequence GATGCAGA, the binding signal (normalized occupancy) was 0.0753. Regarding ACGGAAAA, the binding signal (normalized occupancy) worked out at 0.0709. For AAAGCGGT the value was 0.0664; for AGGTGTCG, 0.0793; for AAAGTGAA, 0.0782. For CACTCGAG, the binding signal (normalized occupancy) was 0.0674. For ACCTGGGA the value was 0.0845; for AGGGAGAC, 0.0735. The result for CCGTAGGC reads 0.0676. For GTGAGGCA, the binding signal (normalized occupancy) turned out to be 0.0786. The result for CTGGGAGC reads 0.0721; that for CGGACTCA, 0.0765.

As to ACCACGCA, the binding signal (normalized occupancy) was 0.0954. The result for GCTCCGGA reads 0.0721. The result for ATACCGGG reads 0.0762. For GCCTACGA the value was 0.0712; for TCGAAGAA, 0.0729; for AGGGGCTA, 0.0762. Take AACCAACG: the binding signal (normalized occupancy) is 0.0845. As for ACAGGTTG, the binding signal (normalized occupancy) is 0.0821. For GAGTTGAC the value was 0.0734. The result for CCGCTGCG reads 0.0704. For CATTACGA the value was 0.0804. Consider CGTAGGGC, for which the binding signal (normalized occupancy) was found to be 0.0702. For GGGTCGAA, the binding signal (normalized occupancy) was 0.068. Regarding GTTGCCAA, the binding signal (normalized occupancy) is 0.0738. For CGCTATAA the value was 0.0784; for CCTGATAG, 0.0743. The result for AAGCGGGA reads 0.0677. For GAAATAGC the value was 0.0789; for AACGAGTT, 0.0732. For ATGCTAAG, the binding signal (normalized occupancy) is 0.0771. CCACGCCA: the binding signal (normalized occupancy) was 0.0991.

With GAGGCGTA, the binding signal (normalized occupancy) amounted to 0.0709. For GGAGGTGA the value was 0.0733.

Values taken from article PMC4242493.
